Measurements published in the RNAGym collection of RNA variant scans (doi:10.7554/elife.90254).
The source gives no read counts; variants with many changes may rest on few reads.

B1: LINE1-mini (parent)
chain: GGCAGAGCUCAACACAGCGUGGCAAAGUGGCUGUGGCUAGACUGCC

Variants of: B1
Test: self-cleavage, relative activity (ratio to wild type); higher = more cleavage; in vitro, sequencing; the parent is a self-cleaving ribozyme

Variant | self-cleavage
A11C A12C C15A | 0.02
C10U U28A G44U | 0.01
A11C C15A A16C C18G G40C | 0.01
A11C C18G A39C A41C U43A C46U | 0.01
C10U U20G G30C U32C | 0.03
C10U G30C U34A C45U | 0.05
C10U U20A A25C | 0.16
C10U G22U G30A | 0.41
A11C C13U G27C | 0.03
A11C G21C C46G | 0.1
A11C A25C C37A | 0.01
C10U C18G U20C | 0.35
C10U G36A C42G U43A | 0.01
A11C G21A A41U | 0.05
A11C G19A G22C C45A C46U | 0
C10U G17U G36C | 0.03
C10U G33A G35U | 0.06
C10U U20A C37G G40U | 0.01
C10U C18A G22U C23U | 0.41
A11C U34A G40A | 0.03
C10U G29A C37A A39C | 0.01

Variant | self-cleavage
A11C G22A G29A G33A U43C | 0
A11C A14G G17U | 0.03
C10U G19C A39C | 0.04
A11C C18U G22C G33U | 0.02
C10U G33U G36U U43C | 0.05
C10U G19U G33U | 0.11
C10U G17U C23A C46G | 0.09
A11C C15G C18U | 0.02
C10U G27A G44A | 0.09
A11C A16G G17U C37A | 0
A11C C13A U32G | 0.01
A11C A12C A24C G35U | 0.04
C10U G29C G30U G36U C37G | 0.02
A11C A24G G35C | 0.02
C10U G17C A39U | 2.29
A11C A12G U34C G35C C37U A39C | 0.01
A11C C31A G33A | 0
A11C A39U C46G | 0.01
A11C A12U G30U C42G | 0.03
C10U G30A U32A A41U | 0.07
A11C A24G G29U A41G | 0.01

Variant | self-cleavage
A11C C31U G36U C45A | 0
C10U C18U G30A C46U | 0.04
A11C A12U A14G A16U C18U G19A C23U | 0
A11C G21C A26U G33A G40A | 0.02
A11C G21U G30U C37G | 0.02
C10U U28C G44U | 0.04
A11C C18U G35C U38A | 0.02
C10U G21C U43C | 0.15
C10U U32A G40U C42U U43G C45A | 0.02
C10U G17U C18U U34C G44U | 0.04
C10U G22C G36A C37G | 0.04
C10U G17A C31A G36U | 0.01
A11C C23A U28G A39G | 0.01
A11C A16G C23U G40U | 0.01
C10U U34G C37G | 0.01
A11C G30A C42A | 0.01
C10U G19A G27U C42A | 0.04
C10U C18U G19A C46U | 0.2
C10U G21A C23G | 0.2
A11C U28C C46A | 0
C10U C31U U32A | 0.01

Variant | self-cleavage
C10U G21C G30A | 0.28
A11C C37U C46G | 0.04
A11C C37U C46A | 0
A11C C15A A39G | 0.03
A11C G17C G29A | 0.02
A11C U38G G44C | 0
A11C C23A A24G G36A C46G | 0.01
A11C C31G G33C | 0.03
A11C C31A U32C | 0
A11C A26U C31U U43C | 0
C10U G27A U43C | 0.03
C10U G27C U34C G44A | 0.04
A11C C18A G44U | 0.03
A11C C13G G22C G29U | 0.04
C10U G19U C23A A41U | 0.05
A11C C31A C37A C46G | 0
C10U G17A G33U | 0.04
C10U C23A U34A | 0.04
A11C G21U G36C | 0.01
C10U U28C A39C | 0.05
